In article PMC10726135:
The other results are listed elsewhere or left out. At the low end of the ranking, values are background and their order means little. The protein was read in a cell extract, so binding may be indirect.

These sequences were tested against T1, HNF4alpha8 (COS-7 nuclear extract) (UniProt P41235-5) (assay: protein-binding microarray). Conditions: COS-7 nuclear extract on double-stranded Agilent 4x180k PBM; binding buffer, salt, pH and temperature not given; high values mean tight binding; double strand, one strand shown; sequences stand for … in …GCCTAGGGAGATTAGAGTATCGGTCGA.
T1 sequence: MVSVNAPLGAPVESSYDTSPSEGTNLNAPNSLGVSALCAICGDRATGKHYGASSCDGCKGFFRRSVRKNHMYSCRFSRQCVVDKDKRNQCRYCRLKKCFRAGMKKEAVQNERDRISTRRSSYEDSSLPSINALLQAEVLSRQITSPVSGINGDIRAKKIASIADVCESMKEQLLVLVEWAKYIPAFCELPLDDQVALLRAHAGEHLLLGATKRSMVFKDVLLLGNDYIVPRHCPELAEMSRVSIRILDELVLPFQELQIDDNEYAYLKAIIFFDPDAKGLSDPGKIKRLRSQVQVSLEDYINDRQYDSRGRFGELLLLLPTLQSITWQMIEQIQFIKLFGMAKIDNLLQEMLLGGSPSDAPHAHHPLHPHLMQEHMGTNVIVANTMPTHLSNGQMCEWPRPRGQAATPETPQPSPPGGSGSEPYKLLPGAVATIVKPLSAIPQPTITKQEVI
Sequence AAGATAATGACTAAGGCAGGGAAGGAGAGT has a binding signal (log2 normalized intensity) of -1.37. Sequence CAGTCACAGCAGTGGACTTTGACCTTGGCA has a binding signal (log2 normalized intensity) of 9.69. CACCCTGCTGTAAATAAAATGAGATTCCTT showed a binding signal (log2 normalized intensity) of -1.08. Sequence CAGAAGACCCTTGGCCTCTACAGCTACTCC has a binding signal (log2 normalized intensity) of 0.572. For TGGCATGTATAATGACACTAGCAGAAGAGA, the binding signal (log2 normalized intensity) was -1. With TCAGAGATCAAGATACAGGTCAGACCCTGG the binding signal (log2 normalized intensity) was 1.48. AAACAAGGCCAAAGTCTGGCAAATGAAATG gave a binding signal (log2 normalized intensity) of 0.295. TGAGGGAGGGAGGAGGGACTGAACAGATAT was tested, and the binding signal (log2 normalized intensity) was -1.32. Work on ATAGTTGACCCTTGAACAATGTGGGGGTCG yielded a binding signal (log2 normalized intensity) of 4.63. GTAAGGCCCGTGAGATTGAAAGCTAAGGCA showed a binding signal (log2 normalized intensity) of -1.37. Work on GAGGGTGGGTTCAAAGGTCAGAAAAAGCTG yielded a binding signal (log2 normalized intensity) of 7.27. Work on TAATTCTTCTTTGAAAGTTTGGTGGACTTT yielded a binding signal (log2 normalized intensity) of 6.91. Sequence TTGACTGAGGTGCAGGACAAAGTGTGCACT has a binding signal (log2 normalized intensity) of 1.38. Sequence GGGGGCGTTCCCCGAGCGAGCTCCGTGCGG has a binding signal (log2 normalized intensity) of -1.26. AGTTTTAGAGTCAATACTCCACAAGACCAC showed a binding signal (log2 normalized intensity) of -1.36. With AGAATGAGGGGCAGGCTTAGCTGGGCTAGC the binding signal (log2 normalized intensity) was -1.37. AAGCCAATCTCTCAAATCTAGCCAATGATG gave a binding signal (log2 normalized intensity) of -1.13. With AGACTGAACAATTATTGCCTGGCATCTAAC the binding signal (log2 normalized intensity) was -1.17. In the case of GAAACCCCTGTAAGTCCAAACAAAATACAA, the binding signal (log2 normalized intensity) is reported as -1.16. Work on TATCTGTTGTCAAACCCACATTCTTCACTG yielded a binding signal (log2 normalized intensity) of -1.33. CCAAGGGCTGTAGCAACCAAGTACCGCAAA was tested, and the binding signal (log2 normalized intensity) was -1.29. For GCCAACAACTAGGGCAAAGGTTAGCTTGGA, the binding signal (log2 normalized intensity) was 4.82. GATAGTGGTTCCATTGTCCTACAGGACATT was tested, and the binding signal (log2 normalized intensity) was 1.02. AGGATGGGCCATGACCTTTACCCCCATTTG was tested, and the binding signal (log2 normalized intensity) was 8.39. TACCAAGGCTCAGAGGTCAAGTCACTGCTC gave a binding signal (log2 normalized intensity) of 3.09. In the case of GGGTGAGGGTGAGGGTTAGGGGTTAGGGTT, the binding signal (log2 normalized intensity) is reported as 1.39. For TGCTAAGTGCCATGTAATCAAACTGAACTT, the binding signal (log2 normalized intensity) was 2.1. CCACCTGCTGGTCAGGAGACTGCTCGGCAT showed a binding signal (log2 normalized intensity) of -1.17. ATTGTTATTTACGGTGGGCACCTCATACTA showed a binding signal (log2 normalized intensity) of -0.547. TTCAAATGAGGGCAGGATGCATGCACTTCA was tested, and the binding signal (log2 normalized intensity) was -1.17. With AGGTCAGAGGTGAGAGCAGAATGAGCAAGG the binding signal (log2 normalized intensity) was -1.29. Work on CCCCTCCCCCAAGGCATGGGACCTTTGCCC yielded a binding signal (log2 normalized intensity) of 7.34. For GCTCCAGCGGGGTTTGAATCCCGGGAATCC, the binding signal (log2 normalized intensity) was -1.18. For GGCAAGCAAGTGACATGTTGGTGGGGGTGG, the binding signal (log2 normalized intensity) was -0.0615. Sequence GTCTGCCCAGAGCGGCAGCGCCTCCCGGTC has a binding signal (log2 normalized intensity) of -1.32. In the case of TCCTGGCCTCCACTCCTCCTCCTTCCCTCC, the binding signal (log2 normalized intensity) is reported as 0.827. With GGAAACTGCTTTGGTTAATCATTAGAGATG the binding signal (log2 normalized intensity) was 1.1. Sequence TTTGCTCTGCTACTAACTGCATGACTTCAG has a binding signal (log2 normalized intensity) of -1.29. CGCCGCCTCTGCCTCTTGACCCCTTGGCCC gave a binding signal (log2 normalized intensity) of 5.9. TCCTGAGTCCACATGAGCCTCTTTATCTCT gave a binding signal (log2 normalized intensity) of -0.141. TCGACTTCCTCTTCATATCAGTAAACCCCA showed a binding signal (log2 normalized intensity) of 4.87. GTTTCAGCCTTATTCTTTGATCTCTTATCA gave a binding signal (log2 normalized intensity) of 0.796. Sequence GGTTATTTCAATTACAAAGCAACACAATGC has a binding signal (log2 normalized intensity) of -1.27. Work on GTGTAAAACAGGTGAAAGATAAGGGCTAGT yielded a binding signal (log2 normalized intensity) of -1.25. In the case of ACAAGCCCGGCTTTGGGCTTGAGCAGCTGG, the binding signal (log2 normalized intensity) is reported as -1.36. CCTCCCAGCCTGGAGGAGGGCGAGGCCGAG was tested, and the binding signal (log2 normalized intensity) was -1.27. Sequence GCGACCCAGGCAGCCCCTTTGCTCCACACA has a binding signal (log2 normalized intensity) of -1.14. CTGGACCTCATCTTCCTCCCCAATATGGTC gave a binding signal (log2 normalized intensity) of 2.48. GTAGGGCCCCCAGCCAGGCCCCAGGCCAAC was tested, and the binding signal (log2 normalized intensity) was 3.98. Work on CTCCACTTGGGTATCAGATAGTCCAATGTC yielded a binding signal (log2 normalized intensity) of 2.52. ACCTGCTGGAATGTTTCAAGTGGCCTGATT showed a binding signal (log2 normalized intensity) of 1.21. In the case of TGGACAGCAGACAACTTTTCCTCTAACCAC, the binding signal (log2 normalized intensity) is reported as -1.39. In the case of GCTCCATACTCCTTATCTTGGCTGTAAGAT, the binding signal (log2 normalized intensity) is reported as 1.06. For CTACATTCTAGATGACCCCTCTCTACTGGT, the binding signal (log2 normalized intensity) was 4.03. With TACCTGTACGTTACTCTGTACCTCGTGGGT the binding signal (log2 normalized intensity) was 1.92. With ATTCCAGCTATTCTGCCTTATCAGCGGCCC the binding signal (log2 normalized intensity) was -1.22. In the case of GATTAGAGAGCAGGTGATAAGGAACTGTTA, the binding signal (log2 normalized intensity) is reported as -0.81. TCTTCTTCACCGGAGATTTACATTCCAGAG showed a binding signal (log2 normalized intensity) of 0.859. GACACCAAAGGTCACGTTCCAGCTGCTTCA was tested, and the binding signal (log2 normalized intensity) was 2.65. Sequence CCTCCTGCTTAGCGGCCTTCCCCTTTTTCT has a binding signal (log2 normalized intensity) of 1.99. For AAAAGTCCAGCTGCCAGGGAGACAAAGTGT, the binding signal (log2 normalized intensity) was -0.653. For AATAAACTGAGGGGTGGGGACCAGTGGGGG, the binding signal (log2 normalized intensity) was -1.22. In the case of TGGGGATAAACACCCCCATCTATGCACTCT, the binding signal (log2 normalized intensity) is reported as 0.825. GCATGCCTCCCAGAGCATTGTTTATTGTTG gave a binding signal (log2 normalized intensity) of 1.11. In the case of GGCATTGTGTTACGTCTGGTTTCTTATCTT, the binding signal (log2 normalized intensity) is reported as 1.26. GGGCAAAGGTCAGGATCTCAGCCGCGCGGC showed a binding signal (log2 normalized intensity) of 4.79. AGAAAGACATGTTTCTAACTGCCCGCATTC showed a binding signal (log2 normalized intensity) of 0.219. Sequence CAGTTAACGGGGACGCTTTAGAGAAACGCA has a binding signal (log2 normalized intensity) of -1.2. Work on CGGCAGAACTGGTGACCGGACACAAAAGCT yielded a binding signal (log2 normalized intensity) of -1.24. With AGGTAACGTAAACAAGTAAGGAAGACAAGA the binding signal (log2 normalized intensity) was -1.27. In the case of CAGCTTTGAAGTGCTTCCTGTGTATTTCTT, the binding signal (log2 normalized intensity) is reported as 1.27. With TGGGACTGGCAAAGCCATGAAGCAATTCTG the binding signal (log2 normalized intensity) was -1.39. With CTTAACTTGGTTTCCCTGGAAACAGATAAA the binding signal (log2 normalized intensity) was 0.246. Sequence CTGCCATAAACTTCTCCCCCACATGGAAAC has a binding signal (log2 normalized intensity) of 4.03. AGCTTGCTCTCACCAGCTTCTTCTCTTTGA was tested, and the binding signal (log2 normalized intensity) was -0.143. ACACTGCCATTTAAAAGTTTCCCTTGATCA was tested, and the binding signal (log2 normalized intensity) was 0.293. ACACAGACACACATGAGCTAGTGCTAAAGG gave a binding signal (log2 normalized intensity) of -1.09. For GGCGGCTAGTGTACAGGTGACCTTTGGAAT, the binding signal (log2 normalized intensity) was 9.41. With CTATAGAGGCAGTGAGCCTTGCCGTGCTGC the binding signal (log2 normalized intensity) was -1.22. TACATAACAATGCAAGATAAAAGTGAGCAA gave a binding signal (log2 normalized intensity) of -1.26. In the case of TGACTGAGCTCGCGCCGGGCACTGATAACG, the binding signal (log2 normalized intensity) is reported as -1.23. Work on TGGCTTGGAACTGACATGCTGTCACTTCTG yielded a binding signal (log2 normalized intensity) of -1.26. Sequence TCTTGTGGCCATTTGGGAAACCGCGATTAA has a binding signal (log2 normalized intensity) of -1.26. With CCCTGGGGGTGGGGGTGTGGGTAGCAGCTG the binding signal (log2 normalized intensity) was -1.24. CTCCCACATCTTTAATTATCATCTCTGTGT gave a binding signal (log2 normalized intensity) of 2.16. Work on CTGTGAAAGAAAAGTACTTTAGTGTATTGT yielded a binding signal (log2 normalized intensity) of 1.44. For GGATAGCGTCATCAGTCCAGGAGGGTCACA, the binding signal (log2 normalized intensity) was 2.05. With TGTCATACTGGTTGAATGGACGGACAGGTA the binding signal (log2 normalized intensity) was 1.77. Work on CTCTCTTAACAGTCTGTTATCCCTAGGAAG yielded a binding signal (log2 normalized intensity) of 1.34. In the case of CCTCGCCTATGGTATGTATGGAATGTCACT, the binding signal (log2 normalized intensity) is reported as 1.77. Sequence TAATTTTGCACAGCCAGCCTGAGGCAGTTG has a binding signal (log2 normalized intensity) of -1.29. For AGGAATGTGAAATGAATTTACAAACAAATG, the binding signal (log2 normalized intensity) was -1.3. In the case of ATACAACTAGGCTACATGATACAGCCTTTT, the binding signal (log2 normalized intensity) is reported as -1.24.
